The other results are listed elsewhere or left out. One pool of 16,384 single-stranded DNAs met each Rep nickase domain in vitro for 1 h at 37 °C with 3 µM enzyme; only the middle of the 90-letter strands is printed. The score is log2 (uncut reads / reads without enzyme); more negative means more cut, near 0 not cut, and no call is made. Shares of all reads are compared; uncut strands gain when others are lost, and binding without cutting may add a little.
Key:
Experiment in all cases: uncleaved DNA left, log2 of reads against the no-enzyme library (log2 ratio); higher = less cleavage (more negative = more Rep cleavage of the k-mer); sequences stand for … in CTCGTCCG…ACCGGAGA
[1] = system: T1, Rep nickase domain of Muscovy duck circovirus
T1 sequence (protein, residues 1-111, tag omitted): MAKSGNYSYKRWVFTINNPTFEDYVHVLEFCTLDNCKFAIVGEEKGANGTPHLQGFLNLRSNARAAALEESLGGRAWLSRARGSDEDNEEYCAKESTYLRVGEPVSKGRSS
Method: (§1)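 A pool of 90-nt single-stranded DNAs with seven random bases just before the constant AC of the nick site (name = the seven bases) was cut by 3 µM recombinant His6-SUMO-tagged Rep nickase domain (300 nM DNA, 50 mM HEPES pH 8.0, 50 mM NaCl, 1 mM MnCl2, 1 h, 37 °C, three replicates). Uncut DNA was amplified and sequenced.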

[2] = system: T2, Rep nickase domain of banana bunchy top virus
T2 sequence (protein, residues 1-94, tag omitted): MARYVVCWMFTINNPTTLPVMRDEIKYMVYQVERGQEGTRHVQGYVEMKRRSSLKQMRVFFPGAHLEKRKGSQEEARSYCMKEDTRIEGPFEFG
Method: as §1

[3] = system: T3, Rep nickase domain of cabbage leaf curl virus
T3 sequence (protein, residues 1-116, tag omitted): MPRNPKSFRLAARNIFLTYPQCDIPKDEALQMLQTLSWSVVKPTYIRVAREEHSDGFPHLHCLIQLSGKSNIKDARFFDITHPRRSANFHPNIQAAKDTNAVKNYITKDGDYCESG
Method: as §1

[4] = system: T4, Rep nickase domain of chickpea chlorotic dwarf virus
T4 sequence (protein, residues 1-124, tag omitted): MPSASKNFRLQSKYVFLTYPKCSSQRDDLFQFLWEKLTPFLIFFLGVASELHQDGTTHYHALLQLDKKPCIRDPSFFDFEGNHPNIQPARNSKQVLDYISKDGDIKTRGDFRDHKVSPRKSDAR
Method: as §1

[5] = system: T5, Rep nickase domain of faba bean necrotic yellows virus
T5 sequence (protein, residues 1-98, tag omitted): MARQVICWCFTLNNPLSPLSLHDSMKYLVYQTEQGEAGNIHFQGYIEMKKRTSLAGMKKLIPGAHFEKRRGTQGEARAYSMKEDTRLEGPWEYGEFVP
Method: as §1

[6] = system: T6, Rep nickase domain of maize striate mosaic virus
T6 sequence (protein, residues 1-117, tag omitted): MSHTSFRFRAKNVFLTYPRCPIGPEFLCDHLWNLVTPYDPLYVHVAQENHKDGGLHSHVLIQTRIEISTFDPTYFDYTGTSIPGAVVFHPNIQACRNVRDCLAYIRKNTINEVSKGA
Method: as §1

[7] = system: T7, Rep nickase domain of porcine circovirus 2
T7 sequence (protein, residues 2-116, tag omitted): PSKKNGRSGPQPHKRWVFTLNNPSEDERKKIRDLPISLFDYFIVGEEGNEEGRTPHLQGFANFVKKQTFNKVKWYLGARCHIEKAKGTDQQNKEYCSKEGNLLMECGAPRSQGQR
Method: as §1

[8] = system: T8, Rep nickase domain of tomato golden mosaic virus
T8 sequence (protein, residues 1-124, tag omitted): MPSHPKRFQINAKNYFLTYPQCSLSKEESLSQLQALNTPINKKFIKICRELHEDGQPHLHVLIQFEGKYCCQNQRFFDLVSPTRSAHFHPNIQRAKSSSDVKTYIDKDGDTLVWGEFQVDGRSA
Method: as §1

[9] = system: T9, Rep nickase domain of tomato yellow leaf curl virus
T9 sequence (protein, residues 1-136, tag omitted): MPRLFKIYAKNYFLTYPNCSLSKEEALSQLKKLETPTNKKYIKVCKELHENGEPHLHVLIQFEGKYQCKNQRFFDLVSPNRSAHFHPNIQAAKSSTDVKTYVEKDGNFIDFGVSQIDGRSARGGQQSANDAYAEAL
Method: as §1

[10] = system: T10, Rep nickase domain of wheat dwarf virus
T10 sequence (protein, residues 1-137, tag omitted): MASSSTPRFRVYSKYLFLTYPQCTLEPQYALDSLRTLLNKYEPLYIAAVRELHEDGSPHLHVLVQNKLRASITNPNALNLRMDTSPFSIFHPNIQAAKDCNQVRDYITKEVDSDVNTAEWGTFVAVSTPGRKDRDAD
Method: as §1

Sequence	uncleaved DNA left (log2) [1]	uncleaved DNA left (log2) [2]	uncleaved DNA left (log2) [3]	uncleaved DNA left (log2) [4]	uncleaved DNA left (log2) [5]	uncleaved DNA left (log2) [6]	uncleaved DNA left (log2) [7]	uncleaved DNA left (log2) [8]	uncleaved DNA left (log2) [9]	uncleaved DNA left (log2) [10]
AATGCCC	-0.101	0.00551	-0.0353	0.0441	-0.0155	-0.18	-0.132	-0.0281	-0.0833	-0.0203
GCATGGC	-0.105	-0.0786	-0.492	-0.391	-0.0705	-1.04	0.125	-0.0815	-0.0298	-0.182
GTCTGAA	-0.00409	0.0735	0.232	0.83	0.0544	1.61	0.0838	0.117	0.0828	0.0642
TTGTGTA	-0.0304	-0.0705	-0.203	-0.815	0.104	-0.838	-0.307	0.0308	0.0452	-0.103
GCAAAAA	0.0439	0.131	0.141	0.506	0.105	-0.0816	0.0445	0.119	0.018	0.147
CGCGTTG	0.307	0.256	0.172	0.409	0.197	0.682	0.198	0.264	0.221	0.182
GGAGTAA	-0.0257	0.069	0.441	1.16	0.02	1.85	0.033	0.0797	0.0808	0.0889
CCTCGCC	-0.0295	0.0936	-0.314	-0.274	-0.0859	-0.686	0.0547	-0.134	-0.0216	-0.133
CGTAGGC	0.136	0.0998	0.199	0.267	0.0909	-0.345	0.228	-0.0531	0.134	-0.00386
TCAGAGG	0.0904	0.118	0.382	1.05	-0.0101	0.965	0.166	0.242	0.0115	-0.0392
GTGATCC	0.091	0.0748	0.394	0.929	0.142	1.92	0.22	0.21	0.138	0.269
TAAAAAC	0.00215	-0.0997	-0.614	-2.34	0.0224	-0.83	0.165	-0.0493	-0.0768	-0.219
TTCTACA	-0.0859	-0.0174	-0.0539	-2.35	-0.108	0.131	-0.558	-0.0937	-0.0998	-0.069
CCTGTCC	0.0462	0.0316	0.0663	-0.131	0.0605	-0.147	0.0359	0.0211	-0.0977	-0.0807
GTGTCGA	0.051	0.00985	0.184	0.462	-0.0608	0.251	0.126	0.0447	0.0522	0.125
GAGTTTG	0.0226	-0.0418	-0.19	-0.163	-0.181	-0.543	-1.19	-0.066	-0.13	-0.152
TCAATAC	-0.0109	-0.0769	0.0481	-0.638	0.0253	-0.736	-0.0766	-0.00703	-0.111	-0.11
GTATATT	-2.56	-0.0826	-0.833	-0.57	-0.12	1.71	-2.63	-0.0728	0.183	-0.179
GTAATGA	-0.135	0.046	0.244	0.703	-0.1	1.3	-0.0298	0.0852	-0.0382	0.0103
CAATTGC	0.00857	0.00738	-0.889	0.292	0.0481	-0.525	0.11	-0.00555	0.118	-0.0267
TATGTAA	0.0442	-0.0535	-0.0372	-0.644	0.124	-0.408	-0.113	0.0193	0.000269	0.119
GAGCCCT	0.0551	0.0973	0.319	-0.351	-0.0236	1.05	-1.02	0.0722	0.198	0.0837
GATGCGG	-0.0371	-0.136	-0.128	-0.12	-0.189	-0.281	0.00747	-0.0719	-0.0635	-0.117
GCTTGTA	-0.107	-0.0557	-0.0132	0.359	-0.0338	-0.0336	-0.218	-0.00586	-0.0985	0.00422
ACCTCTC	0.117	0.0159	0.0567	-0.273	0.0131	-0.344	-0.0149	0.0171	-0.0495	0.0104
GACCGAC	-0.148	-0.125	-0.0864	0.141	0.0913	-0.241	-0.0683	-0.0905	-0.0667	0.0211
GGTTTTG	0.263	0.15	0.227	0.338	0.0732	0.23	0.222	0.229	0.151	0.187
ATTCGAT	0.101	0.0639	0.177	0.677	0.0927	0.665	-0.064	0.121	-0.00276	0.0712
GTGTATC	0.0336	0.153	0.357	0.915	0.00576	1.85	0.143	0.0384	0.162	0.14
AATGTTA	0.0635	0.0688	-0.234	-1.33	0.0893	-0.247	-0.12	0.0369	0.0482	-0.0641
